B1: FM1W7 (Fc fusion)
chain: EVQLVESGGGLVQPGGSLRLSCAASGRTLSIYSMGWFRQAPGKEREFVATIGWNSGRTFYPDSVKGRFTISRDNSKNTLYLQMNSLRAEDTAVYYCAAAKGPLRLSSQADYWGQGTLVTVSSGGGGSGGGGSQVQLVESGGGVVQPGGSLRLSCAASISIFDIYAMDWYRQAPGKQRELVAVSFRDGSTYYADSVKGRFTISRDNSKNTLYLQMNSLRAEDTAVYYCHVSLYRDPLGVAGGIGVYWGQGTLVTVSSGGGGSGGGGSEVQLVESGGGLVQPGGSLRLSCAASGFTFSTSWMYWLRQAPGKGLEWVSVINTDGGTYYADSVKGRFTISRDNSKNTLYLQMNSLRAEDTAVYYCAKDWGGPEPTRGQGTLVTVSSGGGGSGGGGSEVQLLESGGGLVQPGGSLRLSCAASGFTLENKAIGWFRQAPGKEREGVLCISKSGSWTYYADSVKGRFTISRDNSKNTVYLQMNSLRPEDTAVYYCATTTAGGGLCWDGTTFSRLASSWGQGTLVTVSS[gap - human IgG1 Fc]
B2: FM1W8 (Fc fusion)
chain: QVQLVESGGGVVQPGGSLRLSCAASISIFDIYAMDWYRQAPGKQRELVAVSFRDGSTYYADSVKGRFTISRDNSKNTLYLQMNSLRAEDTAVYYCHVSLYRDPLGVAGGIGVYWGQGTLVTVSSGGGGSGGGGSEVQLVESGGGLVQPGGSLRLSCAASGRTLSIYSMGWFRQAPGKEREFVATIGWNSGRTFYPDSVKGRFTISRDNSKNTLYLQMNSLRAEDTAVYYCAAAKGPLRLSSQADYWGQGTLVTVSSGGGGSGGGGSEVQLVESGGGLVQPGGSLRLSCAISGLSLDTYAVGWFRQAPGKEREGVSCISSGHGMTYYADSVKGRFTISTDNSKNTVYLQMNSLRAEDTAVYYCATESRYYCSDNWPAPQRYIYWGQGTLVTVSSGGGGSGGGGSEVQLVESGGGLVQPGGSLRLSCAASGFTFSTSWMYWLRQAPGKGLEWVSVINTDGGTYYADSVKGRFTISRDNSKNTLYLQMNSLRAEDTAVYYCAKDWGGPEPTRGQGTLVTVSS[gap - human IgG1 Fc]
B3: FM1W5 (Fc fusion)
chain: EVQLLESGGGLVQPGGSLRLSCAASGFTLENKAIGWFRQAPGKEREGVLCISKSGSWTYYADSVKGRFTISRDNSKNTVYLQMNSLRPEDTAVYYCATTTAGGGLCWDGTTFSRLASSWGQGTLVTVSSGGGGSGGGGSQVQLVESGGGVVQPGGSLRLSCAASISIFDIYAMDWYRQAPGKQRELVAVSFRDGSTYYADSVKGRFTISRDNSKNTLYLQMNSLRAEDTAVYYCHVSLYRDPLGVAGGIGVYWGQGTLVTVSSGGGGSGGGGSEVQLVESGGGLVQPGGSLRLSCAASGFTFSTSWMYWLRQAPGKGLEWVSVINTDGGTYYADSVKGRFTISRDNSKNTLYLQMNSLRAEDTAVYYCAKDWGGPEPTRGQGTLVTVSSGGGGSGGGGSEVQLLESGGGLVQPGGSLRLSCAASGRTYAMGWFRQAPGKEREFVAAINALGTRTYYADSVKGRFTISRDNSKNTLYLQMNSLRAEDTAVYYCTAQGQWRAAPVAVAAEYEFWGQGTLVTVSS[gap - human IgG1 Fc]
B4: FM1B69.1 (Fc fusion)
chain 1: EVQLLESGGGLVQPGGSLRLSCAASGFTLENKAIGWFRQAPGKEREGVLCISKSGSWTYYADSVKGRFTISRDNSKNTVYLQMNSLRPEDTAVYYCATTTAGGGLCWDGTTFSRLASSWGQGTLVTVSSGGGGSGGGGSEVQLVESGGGLVQPGGSLRLSCAASGFTFSTSWMYWLRQAPGKGLEWVSVINTDGGTYYADSVKGRFTISRDNSKNTLYLQMNSLRAEDTAVYYCAKDWGGPEPTRGQGTLVTVSS[gap - human IgG1 Fc with changes]
chain 2: EVQLVESGGGLVQPGGSLRLSCAISGLSLDTYAVGWFRQAPGKEREGVSCISSGHGMTYYADSVKGRFTISTDNSKNTVYLQMNSLRAEDTAVYYCATESRYYCSDNWPAPQRYIYWGQGTLVTVSSGGGGSGGGGSEVQLVESGGGLVQPGGSLRLSCAASGFTFSTSWMYWLRQAPGKGLEWVSVINTDGGTYYADSVKGRFTISRDNSKNTLYLQMNSLRAEDTAVYYCAKDWGGPEPTRGQGTLVTVSS[gap - human IgG1 Fc with changes]
B5: FM1W6 (Fc fusion)
chain: QVQLVESGGGVVQPGGSLRLSCAASISIFDIYAMDWYRQAPGKQRELVAVSFRDGSTYYADSVKGRFTISRDNSKNTLYLQMNSLRAEDTAVYYCHVSLYRDPLGVAGGIGVYWGQGTLVTVSSGGGGSGGGGSEVQLVESGGGLVQPGGSLRLSCAASGRTLSIYSMGWFRQAPGKEREFVATIGWNSGRTFYPDSVKGRFTISRDNSKNTLYLQMNSLRAEDTAVYYCAAAKGPLRLSSQADYWGQGTLVTVSSGGGGSGGGGSEVQLLESGGGLVQPGGSLRLSCAASGFTLENKAIGWFRQAPGKEREGVLCISKSGSWTYYADSVKGRFTISRDNSKNTVYLQMNSLRPEDTAVYYCATTTAGGGLCWDGTTFSRLASSWGQGTLVTVSSGGGGSGGGGSEVQLVESGGGLVQPGGSLRLSCAASGFTFSTSWMYWLRQAPGKGLEWVSVINTDGGTYYADSVKGRFTISRDNSKNTLYLQMNSLRAEDTAVYYCAKDWGGPEPTRGQGTLVTVSS[gap - human IgG1 Fc]
B6: FM1B67.1 (Fc fusion)
chain 1: EVQLVESGGGLVQPGGSLRLSCAISGLSLDTYAVGWFRQAPGKEREGVSCISSGHGMTYYADSVKGRFTISTDNSKNTVYLQMNSLRAEDTAVYYCATESRYYCSDNWPAPQRYIYWGQGTLVTVSSGGGGSGGGGSEVQLVESGGGLVQPGGSLRLSCAASGFTFSTSWMYWLRQAPGKGLEWVSVINTDGGTYYADSVKGRFTISRDNSKNTLYLQMNSLRAEDTAVYYCAKDWGGPEPTRGQGTLVTVSSGGGGSGGGGSQVQLVESGGGVVQPGGSLRLSCAASISIFDIYAMDWYRQAPGKQRELVAVSFRDGSTYYADSVKGRFTISRDNSKNTLYLQMNSLRAEDTAVYYCHVSLYRDPLGVAGGIGVYWGQGTLVTVSSGGGGSGGGGSEVQLVESGGGLVQPGGSLRLSCAASGRTLSIYSMGWFRQAPGKEREFVATIGWNSGRTFYPDSVKGRFTISRDNSKNTLYLQMNSLRAEDTAVYYCAAAKGPLRLSSQADYWGQGTLVTVSS[gap - human IgG1 Fc]
chain 2: QVQLVESGGGVVQPGGSLRLSCAASISIFDIYAMDWYRQAPGKQRELVAVSFRDGSTYYADSVKGRFTISRDNSKNTLYLQMNSLRAEDTAVYYCHVSLYRDPLGVAGGIGVYWGQGTLVTVSSGGGGSGGGGSEVQLLESGGGLVQPGGSLRLSCAASGRTYAMGWFRQAPGKEREFVAAINALGTRTYYADSVKGRFTISRDNSKNTLYLQMNSLRAEDTAVYYCTAQGQWRAAPVAVAAEYEFWGQGTLVTVSS[gap - human IgG1 Fc with K409R (EU numbers)]
B7: FM1B68.1 (Fc fusion)
chain 1: EVQLVESGGGLVQPGGSLRLSCAASGFTFSTSWMYWLRQAPGKGLEWVSVINTDGGTYYADSVKGRFTISRDNSKNTLYLQMNSLRAEDTAVYYCAKDWGGPEPTRGQGTLVTVSSGGGGSGGGGSEVQLLESGGGLVQPGGSLRLSCAASGFTLENKAIGWFRQAPGKEREGVLCISKSGSWTYYADSVKGRFTISRDNSKNTVYLQMNSLRPEDTAVYYCATTTAGGGLCWDGTTFSRLASSWGQGTLVTVSS[gap - human IgG1 Fc with changes]
chain 2: B6 chain 2
B8: FM1W4 (Fc fusion)
chain: QVQLVESGGGVVQPGGSLRLSCAASISIFDIYAMDWYRQAPGKQRELVAVSFRDGSTYYADSVKGRFTISRDNSKNTLYLQMNSLRAEDTAVYYCHVSLYRDPLGVAGGIGVYWGQGTLVTVSSGGGGSGGGGSEVQLLESGGGLVQPGGSLRLSCAASGRTYAMGWFRQAPGKEREFVAAINALGTRTYYADSVKGRFTISRDNSKNTLYLQMNSLRAEDTAVYYCTAQGQWRAAPVAVAAEYEFWGQGTLVTVSSGGGGSGGGGSEVQLLESGGGLVQPGGSLRLSCAASGFTLENKAIGWFRQAPGKEREGVLCISKSGSWTYYADSVKGRFTISRDNSKNTVYLQMNSLRPEDTAVYYCATTTAGGGLCWDGTTFSRLASSWGQGTLVTVSSGGGGSGGGGSEVQLVESGGGLVQPGGSLRLSCAASGFTFSTSWMYWLRQAPGKGLEWVSVINTDGGTYYADSVKGRFTISRDNSKNTLYLQMNSLRAEDTAVYYCAKDWGGPEPTRGQGTLVTVSS[gap - human IgG1 Fc]

One test concerns the target hemagglutinin (HA) of influenza A/New Caledonia/20/99 (H1N1) (influenza A virus A/New Caledonia/20/99 (H1N1)). Kind of test: cell-based or functional assay.
Molecule B1 registered an Average neutralization titers of 5 nM.
On the same count and under the same terms, under B2 stands 40 nM; under B3, 6 nM.
On the same count and under the same terms, under B4 stands 6 nM.
Turning to B5, the Average neutralization titers was determined as 40 nM.
Same read-out and setting: under B6 stands 6 nM.
Consider B7, for which the Average neutralization titers worked out at 6 nM.
As to B8, the Average neutralization titers is 32 nM.

Another test concerns the target hemagglutinin (HA) of influenza A/Brisbane/10/07 (H3N2) (influenza A virus A/Brisbane/10/07 (H3N2)). Kind of test: cell-based or functional assay.
As for B1, the Average neutralization titers was 10 nM.
On the same count and under the same terms, the result for B2 reads 40 nM.
On the same count and under the same terms, under B3 stands 16 nM; under B4, 26 nM.
On to B5, for which the Average neutralization titers came to 16 nM.
Same read-out and setting: under B6 stands 16 nM; under B7, 16 nM.
In turn, B8 had an Average neutralization titers of 40 nM.

In another test the target is hemagglutinin (HA) of influenza A/Vietnam/1194/04 (H5N1) (influenza A virus A/Vietnam/1194/04 (H5N1)). Kind of test: cell-based or functional assay.
Regarding B1, the Average neutralization titers came to 13 nM.
The same measure, in the same setting: the result for B2 reads 40 nM; that for B3, 8 nM.
With B4, the Average neutralization titers is 16 nM.
In the case of B5, the Average neutralization titers is 32 nM.
On the same count and under the same terms, under B6 stands 16 nM; under B7, 16 nM; under B8, 32 nM.

The target of a further test is hemagglutinin (HA) of influenza B/Brisbane/60/08 (Victoria lineage) (influenza B virus B/Brisbane/60/08). The test can be described thus: cell-based or functional assay.
Regarding B1, the Average neutralization titers stood at 16 nM.
The same measure, in the same setting: under B2 stands 4 nM.
The same measure, in the same setting: under B3 stands 10 nM; under B4, 3 nM; under B5, 8 nM.
Still for that read-out and setting: under B6 stands 4 nM; under B7, 6 nM; under B8, 8 nM.

For the next test, the target named is hemagglutinin (HA) of influenza B/Harbin/7/94 (Yamagata lineage) (influenza B virus B/Harbin/7/94). Kind of test: cell-based or functional assay.
In turn, B1 showed an Average neutralization titers of 6 nM.
Still for that read-out and setting: the result for B2 reads 3 nM; that for B3, 10 nM.
In turn, B4 came in with an Average neutralization titers of 6 nM.
B5 registered an Average neutralization titers of 6 nM.
The same measure, in the same setting: under B6 stands 6 nM.
B7 displayed an Average neutralization titers of 6 nM.
Regarding B8, the Average neutralization titers turned out to be 6 nM.

Values taken from patent US20190359693A1.
